# Measured values taken from the supplement of paper PMC4967469.
# What was measured:
# Test in all cases: Viability of human cancer cell lines after 72 h of drug (GDSC screen)
# RDEA119 = compound: COc1cc(F)c(F)c(Nc2ccc(I)cc2F)c1NS(=O)(=O)C1(C[C@H](O)CO)CC1 [RDEA119]; conditions: top dose 5 µM, top dose inferred
# Description: (§1)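 Human cancer cell lines in 384-well plates, medium with 10% serum, drug for 72 h over a 256-fold dose range (nine 2-fold or five 4-fold steps up to the top dose). Adherent lines were fixed and stained with the nucleic acid dye Syto60, suspension lines read with resazurin; signal relative to control wells, capped at 0 and 100%. One two-parameter sigmoid per drug and line, fitted in a mixed model over all curves with the slope shared within a line.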
# JNK-9L = compound: Fc1cc(-c2ccnc(Nc3ccc(-n4cnc(N5CCOCC5)n4)cc3)n2)cc(N2CCOCC2)c1 [JNK-9L]; conditions: top dose 5.12 µM; top dose inferred
# Description: as §1
# AC220 = compound: CC(C)(C)c1cc(NC(=O)Nc2ccc(-c3cn4c(n3)sc3cc(OCCN5CCOCC5)ccc34)cc2)no1 [AC220]; conditions: top dose 1.024 µM; top dose inferred
# Description: as §1
# 5-Fluorouracil = compound: O=c1[nH]cc(F)c(=O)[nH]1 [5-Fluorouracil]; conditions: top dose 32 µM; top dose inferred
# Description: as §1
# OSU-03012 = compound: NCC(=O)Nc1ccc(-n2nc(C(F)(F)F)cc2-c2ccc3c(ccc4ccccc43)c2)cc1 [OSU-03012]; conditions: top dose 16 µM; top dose inferred
# Description: as §1
# QS11 = compound: OC[C@H](Cc1ccccc1)Nc1nc(Oc2ccc3c(c2)CCC3)nc2c1ncn2Cc1ccc(-c2ccccc2)cc1 [QS11]; conditions: top dose 10.24 µM
# Description: as §1
# CUDC-101 = compound: C#Cc1cccc(Nc2ncnc3cc(OC)c(OCCCCCCC(=O)NO)cc23)c1 [CUDC-101]; conditions: top dose 5.12 µM; top dose inferred
# Description: as §1
Cell Line,AUC (RDEA119; screen: GDSC drug entry 1014),IC50 (RDEA119; screen: GDSC drug entry 1014),AUC (JNK-9L),IC50 (JNK-9L),AUC (AC220),IC50 (AC220),AUC (5-Fluorouracil),IC50 (5-Fluorouracil),AUC (OSU-03012),IC50 (OSU-03012),AUC (QS11),IC50 (QS11),AUC (CUDC-101),IC50 (CUDC-101),AUC (RDEA119; screen: GDSC drug entry 1526),IC50 (RDEA119; screen: GDSC drug entry 1526)
"JSC-1 (B-cell lymphoma, suspension)",0.758,1.72 µM,0.585,0.546 µM,0.934,> 1.02 µM,0.19,0.24 µM,0.691,3.4 µM,0.882,> 10.2 µM,0.161,0.0298 µM,–,–
"SCC-4 (head and neck, adherent)",–,–,0.594,0.608 µM,0.984,> 1.02 µM,0.961,> 32 µM,0.773,7.45 µM,0.981,> 10.2 µM,0.607,0.666 µM,0.877,> 5 µM
"NMC-G1 (glioma, adherent)",0.817,3.64 µM,0.637,0.836 µM,0.98,> 1.02 µM,0.864,> 32 µM,0.751,6.35 µM,0.971,> 10.2 µM,0.679,1.14 µM,0.778,2.52 µM
"Ca9-22 (head and neck, adherent)",0.701,1.09 µM,0.532,–,0.988,> 1.02 µM,0.865,24.9 µM,0.631,2.23 µM,0.897,> 10.2 µM,0.319,0.104 µM,0.709,1.15 µM
"NCI-H1944 (lung adenocarcinoma, adherent)",0.68,1.04 µM,0.471,0.265 µM,0.977,> 1.02 µM,0.69,7.09 µM,0.747,5.42 µM,0.923,> 10.2 µM,0.509,0.338 µM,0.742,1.63 µM
"PSN1 (pancreas, adherent)",0.435,0.215 µM,0.795,1.97 µM,0.991,> 1.02 µM,0.349,0.824 µM,0.505,1.03 µM,0.767,3.23 µM,0.432,0.215 µM,0.497,0.306 µM
"MKN1 (stomach, adherent)",0.929,> 5 µM,0.6,0.611 µM,0.981,> 1.02 µM,0.86,29.3 µM,0.711,4.09 µM,0.924,> 10.2 µM,0.597,0.6 µM,0.882,> 5 µM
"NCI-H1793 (lung adenocarcinoma, adherent)",–,–,0.683,1.29 µM,0.982,> 1.02 µM,0.978,> 32 µM,0.855,> 16 µM,0.981,> 10.2 µM,0.833,> 5.12 µM,0.878,> 5 µM
"BICR10 (head and neck, adherent)",0.86,> 5 µM,0.608,0.663 µM,0.983,> 1.02 µM,0.976,> 32 µM,0.783,7.85 µM,0.985,> 10.2 µM,0.87,> 5.12 µM,0.867,> 5 µM
"NCI-H716 (large intestine, suspension)",–,–,0.819,3.95 µM,0.956,> 1.02 µM,0.915,> 32 µM,0.863,> 16 µM,0.969,> 10.2 µM,0.799,3.22 µM,0.632,0.798 µM
"HCE-4 (oesophagus, adherent)",–,–,0.584,0.525 µM,0.991,> 1.02 µM,0.986,> 32 µM,0.615,1.96 µM,0.885,8.44 µM,0.971,> 5.12 µM,0.936,> 5 µM
"NCI-H1435 (lung adenocarcinoma, semi-adherent)",0.976,> 5 µM,0.552,0.435 µM,0.993,> 1.02 µM,0.988,> 32 µM,0.876,12.9 µM,0.974,> 10.2 µM,0.985,> 5.12 µM,0.992,> 5 µM
"Daoy (medulloblastoma, adherent)",–,–,0.635,0.724 µM,0.973,> 1.02 µM,0.748,9.47 µM,0.579,1.61 µM,0.765,3.43 µM,0.4,0.174 µM,0.953,> 5 µM
"Hep 3B2_1-7 (liver, adherent)",0.716,1.28 µM,0.597,0.589 µM,0.987,> 1.02 µM,0.902,> 32 µM,0.57,1.56 µM,0.751,3.36 µM,0.652,0.842 µM,0.78,2.05 µM
"CAL-85-1 (breast, adherent)",0.778,2.64 µM,0.539,0.422 µM,0.973,> 1.02 µM,0.75,13.1 µM,0.491,0.941 µM,0.772,5.09 µM,0.718,1.61 µM,0.776,2.6 µM
"KYSE-220 (oesophagus, adherent)",0.843,3.86 µM,0.606,0.635 µM,0.982,> 1.02 µM,0.922,> 32 µM,0.754,5.67 µM,0.948,> 10.2 µM,0.602,0.62 µM,0.831,3.42 µM
"UM-UC-3 (bladder, adherent)",–,–,0.566,0.479 µM,0.981,> 1.02 µM,0.753,10.1 µM,0.776,6 µM,0.912,> 10.2 µM,0.621,0.672 µM,0.85,3.42 µM
"CAL-54 (kidney, adherent)",0.823,3.53 µM,0.619,0.714 µM,0.972,> 1.02 µM,0.984,> 32 µM,0.867,> 16 µM,0.966,> 10.2 µM,0.607,0.659 µM,0.814,3.21 µM

# By IC50 is meant the dose at which the fit gives 50% viability; a fit beyond the top or the lowest dose is shown as a bound at that dose. The AUC spans the tested range (256-fold, ending at the top dose) of the same fit; it is 1 without any effect and falls as sensitivity rises. For part of these data: The top dose, if marked as inferred, is not printed in the source and was worked back from the curve model. For part of these data: An entry number marks a drug with two screens in the source, which often give different values.
